{"source": "ChEMBL document CHEMBL4888484", "about": "“Replenishing the malaria drug discovery pipeline: Screening and hit evaluation of the MMV Hit Generation Library 1 (HGL1) against asexual blood stage Plasmodium falciparum ,using a nano luciferase reporter read-out” (2022)", "system": "Plasmodium falciparum", "experiment": "Primary screen in NF54 nanoGlo assay, in single point, at 2uM, 72h; a lower Z score goes with more inhibition", "format": "functional, Erythrocyte", "conditions": "timepoint 72 hour", "note": "Several values for one entry are separate records, joined by “and”; a condition that tells them apart may be missing. Equal entries are not always repeated. About 540 (0.36%) of roughly 150,000 compounds showed an effect of 50% or more. Some of the results follow.", "data": [{"smiles": "CN(C)C(=O)c1ccc(CNC(=O)N(C)Cc2ncon2)o1", "values": [{"measurement": "% Inhibition", "result": 19, "unit": "%"}, {"measurement": "Z score", "result": -2.39}]}, {"smiles": "O=C(NCCOc1ccccc1)NCCOc1ccccc1", "values": [{"measurement": "% Inhibition", "result": 1, "unit": "%"}, {"measurement": "Z score", "result": -0.22}]}, {"smiles": "CCN1CCN(C(=O)Nc2cc(C)ccc2OC)[C@H]2CS(=O)(=O)C[C@H]21", "values": [{"measurement": "% Inhibition", "result": 3, "unit": "%"}, {"measurement": "Z score", "result": -0.39}]}, {"smiles": "Cc1ccc2[nH]c3c(=O)n(CCC(=O)N4CCN(Cc5ccc6c(c5)OCO6)CC4)cnc3c2c1", "values": [{"measurement": "% Inhibition", "result": 3, "unit": "%"}, {"measurement": "Z score", "result": -0.57}]}, {"smiles": "CC(NC(=O)NC(C)c1nc(C2CCCCC2)no1)c1cnn(C)c1", "note": "(configuration not stated)", "values": [{"measurement": "% Inhibition", "result": 22, "unit": "%"}, {"measurement": "Z score", "result": -2.61}]}, {"smiles": "COc1cccc(C2=CCN(c3ccccc3O)C(=O)N2)c1", "values": [{"measurement": "% Inhibition", "result": -8, "unit": "%"}, {"measurement": "Z score", "result": 1.11}]}, {"smiles": "COc1ccc(CN2CCN(c3nc(-c4cccs4)c4c(N)n(-c5cccc(C)c5)nc4n3)CC2)cc1", "values": [{"measurement": "% Inhibition", "result": -5, "unit": "%"}, {"measurement": "Z score", "result": 0.96}]}, {"smiles": "O=C(c1ccc(=O)[nH]c1)N1CC[C@H](c2ncon2)C1", "values": [{"measurement": "% Inhibition", "result": -12, "unit": "%"}, {"measurement": "Z score", "result": 2.1}]}, {"smiles": "Cc1ccccc1-c1cnc(NC(=O)N2CCCN(C)CC2)s1", "values": [{"measurement": "% Inhibition", "result": -7, "unit": "%"}, {"measurement": "Z score", "result": 0.93}]}, {"smiles": "CCC(NC(C)c1ccc(Cl)s1)c1ccncc1", "note": "(configuration not stated)", "values": [{"measurement": "% Inhibition", "result": -2, "unit": "%"}, {"measurement": "Z score", "result": 0.23}]}, {"smiles": "O=C(NCc1ccc(F)cc1)[C@H]1CCN(c2cn[nH]c(=O)c2)C1", "values": [{"measurement": "% Inhibition", "result": -8, "unit": "%"}, {"measurement": "Z score", "result": 1.47}]}, {"smiles": "CN1CCO[C@@H](CNS(=O)(=O)c2cccnc2)C1", "values": [{"measurement": "% Inhibition", "result": 5, "unit": "%"}, {"measurement": "Z score", "result": -0.73}]}, {"smiles": "CCc1cc(C(=O)Nc2n[nH]c(Cc3cccc(F)c3)n2)[nH]n1", "values": [{"measurement": "% Inhibition", "result": -9, "unit": "%"}, {"measurement": "Z score", "result": 1.07}]}, {"smiles": "CN1CCCC[C@@H]1CCn1ccc2ccccc2c1=O", "values": [{"measurement": "% Inhibition", "result": -24, "unit": "%"}, {"measurement": "Z score", "result": 2.4}]}, {"smiles": "CCc1onc(C)c1CS(=O)(=O)Cc1ccsc1Cl", "values": [{"measurement": "% Inhibition", "result": 7, "unit": "%"}, {"measurement": "Z score", "result": -1.08}]}, {"smiles": "Cc1cnc(-c2cccc(NC(=O)NCCN(C)C)c2)o1", "values": [{"measurement": "% Inhibition", "result": -2, "unit": "%"}, {"measurement": "Z score", "result": 0.29}]}, {"smiles": "C[C@@H](c1ccccc1)n1c(NC(=O)c2ccco2)c(S(=O)(=O)c2ccccc2)c2nc3ccccc3nc21", "values": [{"measurement": "% Inhibition", "result": 2, "unit": "%"}, {"measurement": "Z score", "result": -0.19}]}, {"smiles": "CC(C)Oc1ccccc1CCNC(=O)[C@@H]1CC[C@H](C(=O)O)C1", "values": [{"measurement": "% Inhibition", "result": -1, "unit": "%"}, {"measurement": "Z score", "result": 0.1}]}, {"smiles": "O=C(c1ccn(C(F)F)n1)N1CCC[C@H](CN2CCCCC2)C1", "values": [{"measurement": "% Inhibition", "result": -15, "unit": "%"}, {"measurement": "Z score", "result": 2.27}]}, {"smiles": "O=C(Nc1cc(C(F)(F)F)c[nH]c1=O)C(=O)NC(C1CC1)C1CC1", "values": [{"measurement": "% Inhibition", "result": -4, "unit": "%"}, {"measurement": "Z score", "result": 0.51}]}, {"smiles": "COc1ccc(-c2nc(NCCN3CCCCC3)nc3nn(Cc4ccccc4)c(N)c23)cc1OC", "values": [{"measurement": "% Inhibition", "result": 2, "unit": "%"}, {"measurement": "Z score", "result": -0.41}]}, {"smiles": "CN(C(=O)c1ccncc1Cl)c1ccc2c(c1)CCO2", "values": [{"measurement": "% Inhibition", "result": -10, "unit": "%"}, {"measurement": "Z score", "result": 0.94}]}, {"smiles": "Cc1ccnc(C)c1NC(=O)[C@H]1CCN(CC(F)(F)F)C1", "values": [{"measurement": "% Inhibition", "result": -2, "unit": "%"}, {"measurement": "Z score", "result": 0.32}]}, {"smiles": "C=CCN(CC#Cc1ccccc1)C(=O)c1cc2n(n1)CCCN(C)C2", "values": [{"measurement": "% Inhibition", "result": -9, "unit": "%"}, {"measurement": "Z score", "result": 1.65}]}, {"smiles": "O=C1CN(C(=O)Cn2cccn2)c2cc(Br)ccc2N1", "values": [{"measurement": "% Inhibition", "result": -3, "unit": "%"}, {"measurement": "Z score", "result": 0.45}]}, {"smiles": "COC[C@@H]1CN(c2ccncn2)C[C@H]1C(=O)NCC(F)(F)F", "values": [{"measurement": "% Inhibition", "result": -11, "unit": "%"}, {"measurement": "Z score", "result": 1.64}]}, {"smiles": "O=c1[nH]c(=O)n(Cc2cccnc2)c2c1C(C(F)(F)F)(C(F)(F)F)NC(c1ccccc1)=N2", "values": [{"measurement": "% Inhibition", "setting": "2 µM", "result": "1% and -8%"}]}, {"smiles": "COc1cccc(CO[C@H]2CN(CC(C)C)C(=O)CN(C(=O)c3snnc3C)C2)c1", "values": [{"measurement": "% Inhibition", "result": -9, "unit": "%"}, {"measurement": "Z score", "result": 1.24}]}, {"smiles": "CC(C)[C@@H](CO)NCc1noc(C2CC2)n1", "values": [{"measurement": "% Inhibition", "result": -5, "unit": "%"}, {"measurement": "Z score", "result": 0.67}]}, {"smiles": "O=C(c1cccc2[nH]ccc12)N1CCC2(CC1)NC(c1ccc(Cl)cc1)=NO2", "values": [{"measurement": "% Inhibition", "result": -21, "unit": "%"}, {"measurement": "Z score", "result": 1.92}]}, {"smiles": "Cc1nc(CC(=O)N[C@H]2CC=CC[C@@H]2C(N)=O)cs1", "values": [{"measurement": "% Inhibition", "result": -6, "unit": "%"}, {"measurement": "Z score", "result": 0.67}]}, {"smiles": "C#CCN1CCC[C@H]1C(=O)NCCc1ccccn1", "values": [{"measurement": "% Inhibition", "result": 7, "unit": "%"}, {"measurement": "Z score", "result": -0.78}]}, {"smiles": "OC(CNC1CCc2c(Br)cccc21)c1ccncc1", "note": "(configuration not stated)", "values": [{"measurement": "% Inhibition", "result": -13, "unit": "%"}, {"measurement": "Z score", "result": 1.3}]}, {"smiles": "O=C(Cc1n[nH]c(=O)c2ccccc12)NCC[C@H]1CCCO1", "values": [{"measurement": "% Inhibition", "result": -20, "unit": "%"}, {"measurement": "Z score", "result": 2.68}]}, {"smiles": "COCC1(n2cnc3nccnc3c2=O)CCCC1", "values": [{"measurement": "% Inhibition", "result": -11, "unit": "%"}, {"measurement": "Z score", "result": 2.07}]}, {"smiles": "c1cncc(-c2nnc3n2C2(CCCCC2)Cc2ccccc2-3)c1", "values": [{"measurement": "% Inhibition", "result": -5, "unit": "%"}, {"measurement": "Z score", "result": 0.64}]}, {"smiles": "Cn1cc([C@@H]2[C@@H](CNC(=O)Cn3cc(C4CC4)cn3)CC(=O)N2C(C)(C)C)cn1", "values": [{"measurement": "% Inhibition", "result": 0, "unit": "%"}, {"measurement": "Z score", "result": 0.07}]}, {"smiles": "CCC1CN(C(=O)CCc2c(C)nn(C)c2C)CC1N1CCOCC1", "note": "(configuration not stated)", "values": [{"measurement": "% Inhibition", "result": -11, "unit": "%"}, {"measurement": "Z score", "result": 0.98}]}, {"smiles": "CCc1nnc(-c2[nH]c(C)c(S(=O)(=O)Nc3ccc(F)c(C)c3)c2C)o1", "values": [{"measurement": "% Inhibition", "result": 2, "unit": "%"}, {"measurement": "Z score", "result": -0.24}]}, {"smiles": "CC(C)C(=O)Nc1ccc2c(c1)C(=O)Nc1cccnc1O2", "values": [{"measurement": "% Inhibition", "result": -9, "unit": "%"}, {"measurement": "Z score", "result": 1}]}, {"smiles": "CCc1cc(NC(=O)c2ccc(-c3ccccc3F)o2)n(C)n1", "values": [{"measurement": "% Inhibition", "result": -10, "unit": "%"}, {"measurement": "Z score", "result": 1}]}, {"smiles": "O=C(NCc1cccc(F)c1)c1ccc(CN2C(=O)CCn3nc(-c4ccc(Cl)cc4)cc32)cc1", "values": [{"measurement": "% Inhibition", "result": 5, "unit": "%"}, {"measurement": "Z score", "result": -0.63}]}, {"smiles": "CC1(CO)CN(Cc2ccc(OC(F)F)c(Cl)c2)C1", "values": [{"measurement": "% Inhibition", "result": -4, "unit": "%"}, {"measurement": "Z score", "result": 0.58}]}, {"smiles": "Cc1nccnc1N(C)Cc1ccc2c(c1)OCO2", "values": [{"measurement": "% Inhibition", "result": -2, "unit": "%"}, {"measurement": "Z score", "result": 0.42}]}, {"smiles": "CCCN(CC)Cc1ccccc1-c1nc2c(c(=O)[nH]1)CCCCC2", "values": [{"measurement": "% Inhibition", "result": 4, "unit": "%"}, {"measurement": "Z score", "result": -0.66}]}, {"smiles": "CCN1CCN(C(=O)c2cccc(NCc3cccnc3)c2C)[C@@H](C)C1=O", "values": [{"measurement": "% Inhibition", "result": -7, "unit": "%"}, {"measurement": "Z score", "result": 1.21}]}, {"smiles": "NC(=O)CN1CCC(N[C@@H](CCc2ccccc2)C(F)F)CC1", "values": [{"measurement": "% Inhibition", "result": 5, "unit": "%"}, {"measurement": "Z score", "result": -0.59}]}, {"smiles": "CN(C)C(=O)CN1C[C@H](Nc2cccc(C#N)n2)[C@@H](C2CC2)C1", "values": [{"measurement": "% Inhibition", "result": 0, "unit": "%"}, {"measurement": "Z score", "result": -0.08}]}, {"smiles": "N#Cc1cccc(CN2CCC[C@@](CO)(CC3CC3)C2)c1", "values": [{"measurement": "% Inhibition", "result": 5, "unit": "%"}, {"measurement": "Z score", "result": -0.82}]}, {"smiles": "O=C(Nc1ccc(C(F)(F)F)cc1)C1CCN(C(=O)c2ccc(-c3ccccc3)cc2)CC1", "values": [{"measurement": "% Inhibition", "result": -17, "unit": "%"}, {"measurement": "Z score", "result": 2.19}]}, {"smiles": "CCOc1ccnc(-c2ccc(N(C)C)nc2)n1", "values": [{"measurement": "% Inhibition", "result": 2, "unit": "%"}, {"measurement": "Z score", "result": -0.16}]}, {"smiles": "NC(=O)C1C2CCCC2CN1c1ncnc2c1ncn2CC1(CO)COC1", "note": "(configuration not stated)", "values": [{"measurement": "% Inhibition", "result": 2, "unit": "%"}, {"measurement": "Z score", "result": -0.27}]}, {"smiles": "COc1ccccc1CCC(=O)N1C[C@H]2CCN(C)[C@H]2C1", "values": [{"measurement": "% Inhibition", "result": -11, "unit": "%"}, {"measurement": "Z score", "result": 1.55}]}, {"smiles": "Cc1c(CN[C@@H](C)CCc2ccccc2)c(C(=O)O)c(C)n1Cc1cccc(Cl)c1", "values": [{"measurement": "% Inhibition", "result": -4, "unit": "%"}, {"measurement": "Z score", "result": 0.78}]}]}
